# The other results are listed elsewhere or left out.
# T1: UNK ZnF1-3 (human, UniProt Q9C0B0 31-174)
# T1 sequence: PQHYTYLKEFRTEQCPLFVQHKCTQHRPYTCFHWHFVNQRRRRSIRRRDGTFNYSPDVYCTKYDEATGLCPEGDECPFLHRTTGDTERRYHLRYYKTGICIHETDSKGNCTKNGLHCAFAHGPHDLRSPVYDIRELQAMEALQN
# B1: chr11:55313332:55313333:+_ENSMUSG00000018583_ENSMUST00000018727|mus_mus|FALSE|FALSE (ssRNA)
# RNA: GGGAGUUCUACAGUCCGACGAUCCUCUUUACAAUCUAUUCCUCCUAAAGUAUCAUUCCGGAAAACUGGGAAUGAAGGACUAAGGGGUCAGGGGAGGAAAGGGGGUUGGGAGCACACACCAUGAACACAAGCGAAAUGAAAAUUCAACAGAGGAUUGAGCAUCA
# B2: 169910951_169911071_1172_3pUTR_ENSG00000145439_ENST00000306193|human|control|control (ssRNA)
# RNA: GGGAGUUCUACAGUCCGACGAUCACAUCCUUUAGAAAACACAAUUUGUCUGGGGGGAUGAUUGCACAUGUAUUUAAAUAUGUUAAAACCACUGAAUUGUGUAUUUUAAAUGUGUGAUUAUAUGGUAUGUGAAUUGUAUCUCAUCAACAGAGGAUUGAGCAUCA
# B3: chr6:86333760:86333761:-_ENSG00000135316_ENST00000355238|hu_mus|hu_hu_hu_mus_True|28_98 (ssRNA)
# RNA: GGGAGUUCUACAGUCCGACGAUCUUCCUCAAGAAUCUGUUCCUUGGUUUUACUCUUAGGAAUCGAGCCCACAAAAAGCCUAUUGUUGGCAACUGAGAUGCAGACACCAAUAUGUUUCCCGGAACGAAUUUCAUGAUUAUUAUACAACAGAGGAUUGAGCAUCA
# B4: chr8:82586177:82586178:-_ENSG00000133731_ENST00000256108|hu_hu|motif|central (ssRNA)
# RNA: GGGAGUUCUACAGUCCGACGAUCUCCUUUUCUGGCAGUGUACAUCUUGCCUUCCACACAACUGUACACAACUCCAAAUUCGGUCUUUUUAUUUACAGCAAAGCCAAUUGAAACAGCUACAAAAGGAAAUCUAUGUACAAAGUUCAACAGAGGAUUGAGCAUCA
# B5: chr3:8561242:8561243:+_ENSMUSG00000027500_ENSMUST00000029002|mus_hu|motif|central (ssRNA)
# RNA: GGGAGUUCUACAGUCCGACGAUCAACAACCAGCUCACAGUUUCCAAGUGGAAAAAUAUUCAGUAGCAUCAUGUACUUGUACGGUAGGUAAGAGCUUAAAAUGAACAUCAUCAAUCAUGGCAUCCACAAAUAAGCCACCUGACACAACAGAGGAUUGAGCAUCA
# B6: chr2:32445735:32445736:+_ENSG00000152683_ENST00000406369|hu_hu|motif|central (ssRNA)
# RNA: GGGAGUUCUACAGUCCGACGAUCUCAAUAUUCCUUAUAAAAAUAAGUUAGAGUCUAUCAUGGUCUUGGUUGUCCAAUUCGGUUAUUAGUUCCAUAUCUACUUGGUAUAUUUGUAAAACCAGUCCUCAAUCCUUGAGUUGCUCCCAACAGAGGAUUGAGCAUCA
# Molecular target: T1, UNK ZnF1-3
# Assay: nsRBNS (natural sequence RNA bind-n-seq); RBNS binding buffer (assumed for nsRBNS): 25 mM Tris pH 7.5, 150 mM KCl, 3 mM MgCl2, 0.01% Triton X-100, 500 ug/ml BSA, 20 U/ml SUPERase-In, 4 C; UNK is unkempt and MSI1 is Musashi-1; names of the RNAs are library labels; protein concentration not given here; high values mean tight binding
row,Binder,binding signal [enrichment R]
1,B1,1.25
2,B2,1.2
3,B3,1.22
4,B4,0.993
5,B5,1.76
6,B6,1.18

# From PMC12136788
